In the antibiotic and cytotoxicity screens of Wong et al. (2023):
The other results are listed elsewhere or left out.

Assays:
[1] = system: HSkMC (human skeletal muscle cells); assay: cytotoxicity call (relative viability < 0.9); conditions: 10 µM
[2] = system: HepG2; assay: cytotoxicity call (relative viability < 0.9); conditions: 10 µM
[3] = system: S. aureus RN4220; assay: growth inhibition call (relative growth <= 0.2); conditions: 50 µM

SMILES | cytotoxicity call [1] | cytotoxicity call [2] | growth inhibition call [3]
CC(=O)N1CCN(c2ncnc3nc[nH]c23)CC1 | inactive | inactive | inactive
CN1CCN2c3ncccc3Cc3ccccc3C2C1 (stereo not given) | inactive | inactive | inactive
C[C@@H]1CN([C@H](C)CO)C(=O)Cc2cc(NC(=O)Nc3cccc4ccccc34)ccc2O[C@@H]1CN(C)Cc1ccc(Cl)c(Cl)c1 | inactive | active | inactive
C[C@@H]1CCCCO[C@H](CN(C)C(=O)c2ccccc2)[C@@H](C)CN([C@H](C)CO)C(=O)c2cc(NS(=O)(=O)c3ccccc3)ccc2O1 | inactive | inactive | inactive
C[C@@H]1CCCCO[C@H](CN(C)C(=O)Nc2ccccc2)[C@@H](C)CN([C@@H](C)CO)C(=O)c2cc(NS(=O)(=O)c3ccccc3)ccc2O1 | inactive | inactive | inactive
C=CCN(C(=O)[C@H]1N(c2ccc(CCO)cc2)C(=O)[C@H]2[C@H](C(=O)O)[C@@H]3C=C[C@@]21O3)c1ccc(OC)cc1 | inactive | inactive | inactive
C/C=C/c1ccc2c(c1)O[C@@H](CN(C)C(=O)c1ccc3c(c1)OCO3)[C@H](C)CN([C@@H](C)CO)S2(=O)=O | inactive | inactive | inactive
C[C@@H]1CN([C@H](C)CO)C(=O)c2cccc(NC(=O)NC3CCCCC3)c2O[C@H]1CN(C)Cc1ccc(Cl)c(Cl)c1 | inactive | inactive | inactive
O=C(C[C@@H]1C[C@@H]2c3cc(NC(=O)NC4CCCC4)ccc3O[C@@H]2[C@@H](CO)O1)NCc1ccc2c(c1)OCO2 | inactive | inactive | inactive
C[C@@H]1CCCCO[C@@H](CN(C)C(=O)c2ccccc2)[C@H](C)CN([C@@H](C)CO)C(=O)c2cc(NC(=O)Nc3ccccc3)ccc2O1 | inactive | inactive | inactive
